Sequences and labels used below:
B1: chr17:64801638:64801639:+_ENSG00000154229_ENST00000413366|hu_mus|hu_hu_hu_mus_False|38_108 (ssRNA)
RNA: GGGAGUUCUACAGUCCGACGAUCUAUAAAUACAUAUACAUAUGUACACAUAUAUAGUAAAACCCUAGUUAAACGUGUAAAGUAGCCAUUCAUUUUUGAAAUUUUAUCUACAUUAAAAAAUUAAUAUAUCUGAUAGAGUGCCAGCAACAGAGGAUUGAGCAUCA
B2: 3366418_3366538_1347_CDS_ENSMUSG00000020668_ENSMUST00000020999|mouse|control|control (ssRNA)
RNA: GGGAGUUCUACAGUCCGACGAUCCUUGGUGACAAAGGAAGAGAGGUCCUUGAUGUAGACCCCUGUUUCAGGAUUCUCCUUCAGCUCUAGCCUCUUGCCUGGCUCCUUGGAUAGCAGGUCUCGGAUCUCCUCCUGGUAGAUCUCCAACAGAGGAUUGAGCAUCA
B3: chr7:99593754:99593755:+_ENSMUSG00000052572_ENSMUST00000098308|mus_hu|FALSE|FALSE (ssRNA)
RNA: GGGAGUUCUACAGUCCGACGAUCCUUUAGUGCCUUCUUUCAGUUUAUAAAUGGCAAAAUAGGCAAUCAACAAUCAUAAAGCUAAUCCCAGGUGGAAUCCCCUCCUGUCAGUGAGGUUAGUCCUCCAUACACUUGCAAAUUUUACAACAGAGGAUUGAGCAUCA
B4: chr2:135163197:135163198:+_ENSMUSG00000051177_ENSMUST00000110116|mus_mus|motif|central (ssRNA)
RNA: GGGAGUUCUACAGUCCGACGAUCGAAGAGUUGAGGCAUGUAGUUGGAUGAAUCCACACGUGUUCCCUUGGGAUAUAUCCUGCGGAGUUGCAUCUUGUUGUAUUCUACAAAUUCCACCGGAGACUUUGUAAGUUGUUCAAGUCCCAACAGAGGAUUGAGCAUCA
B5: chr2:47389785:47389786:-_ENSG00000143933_ENST00000272298|hu_mus|FALSE|FALSE (ssRNA)
RNA: GGGAGUUCUACAGUCCGACGAUCCUGUCCCCAGCUCCUUUGUUGUUAUUGUCCCAUCCCCGUCCUUGUCAAAUAGUGAGAAAGCUUCUUUGAACUCUGCAAUCUGCUCUUCAGUCAGUUGGUCAGCCAUGCUGCAAGGGCUACCAACAGAGGAUUGAGCAUCA
B6: chr4:124478334:124478335:+_ENSMUSG00000028894_ENSMUST00000094782|mus_mus|FALSE|FALSE (ssRNA)
RNA: GGGAGUUCUACAGUCCGACGAUCGGCUGAAUAAGGCAAAGUACAGUUACUUAAAACUUUUAAAUAAAAAUGAAUAGGGAGCUAUUUGUGUUAAAUAACUAGAGUUGAAUGUGGAACGUCAGUUCUACUAUGGUGGAUUGCCCCCAACAGAGGAUUGAGCAUCA
B7: chr1:23381596:23381597:+_ENSG00000004487_ENST00000356634|hu_hu|motif|central (ssRNA)
RNA: GGGAGUUCUACAGUCCGACGAUCAGUUGGUAGGGGUUUUAUCCUCUUAUAGAUGCCGAAGUUGAUAAGACCAUGACGCUCGGAAUAACUGUGAACUCGGUGGACAAGCACAGUAUCACUGUUAUAAGGUGCUUCUAAUUGUUGCAACAGAGGAUUGAGCAUCA
B8: chr2:109737439:109737440:+_ENSMUSG00000027162_ENSMUST00000028583|mus_mus|motif|central (ssRNA)
RNA: GGGAGUUCUACAGUCCGACGAUCCAUUUUCUCAAAGCGGGACUCCAUUUCUUCCAAGACUUUUGGUGUGUACCGUACGACGGAUUUAACCUUCCCUUGGGCUGCUUUCAGUAGCUCUACCGCUUUCUCAUGGUGCUCCCCUUCCAACAGAGGAUUGAGCAUCA
B9: chr2:192256868:192256869:+_ENSG00000128641_ENST00000304164|hu_hu|motif|central (ssRNA)
RNA: GGGAGUUCUACAGUCCGACGAUCUGGGUUUCGGAUGAAUAUCUUUGAUCUACCAAAGGAGUAUUCUUCCACGGGAAUUUCGGAUUCAUUAAAUAGGACCUCCACACCAGACCUGGCUGGUCCUUUCCAAUGAGGCCAUGUUUGCAACAGAGGAUUGAGCAUCA
B10: 32336150_32338001_3424_CDS_ENSMUSG00000024002_ENSMUST00000121285|mouse|control|control (ssRNA)
RNA: GGGAGUUCUACAGUCCGACGAUCGCUCUGGAACUGUGGCAUCUGAGGGGAAUGUAUCAUAAGCGGAGAGGGAGCCUCACGAAGAUGACCAGCUGAGUAGGGGUCUGACUUGUGGUGCCGGGGGGAAGGGUGAUGCUGGAUGACCAACAGAGGAUUGAGCAUCA
B11: chr16:94664741:94664742:+_ENSMUSG00000040785_ENSMUST00000117648|mus_hu|mus_mus_mus_hu_False|1_68 (ssRNA)
RNA: GGGAGUUCUACAGUCCGACGAUCUGGUACUGAUCUUGGUAGCUGAUAUUCAGGAGAAAGGCUGGCCAAAGGUGUGUAUAUGCUGGUGUACUGGGGCAAACCUGGUAACACGUUUAUGUAUGCUGGCGGUGUCUGGGUGCCAAACAACAGAGGAUUGAGCAUCA
B12: chr21:38862523:38862524:+_ENSG00000157540_ENST00000338785|hu_hu|FALSE|FALSE (ssRNA)
RNA: GGGAGUUCUACAGUCCGACGAUCUCGGAAAUUGGUGUUUCUCAGCAAGUCAUAGAGGUUGUAGGACAGCAUUUCAAAAACUAAACAGAGAUGGUUUCGAAACAUAAAGUGGCGUUUCAAAUGCACUAUGUAGUAUUUCAUUUCCAACAGAGGAUUGAGCAUCA
B13: 59343180_59345790_473_CDS_ENSG00000215114_ENST00000399598|human|control|control (ssRNA)
RNA: GGGAGUUCUACAGUCCGACGAUCAUUUUCUCCAUAGAUAUAUUCAGACCGCUUACAAAAAGAACUACCCAAUCUGUAUCCUCCACCUGUAAAUGACUUAGAUUUAUCAUCACCUGAAGCUCUUGUGGCUUCAUUCAGAGGGACCAACAGAGGAUUGAGCAUCA
B14: chr1:163117127:163117128:-_ENSG00000143248_ENST00000313961|hu_mus|hu_hu_hu_mus_False|78_88 (ssRNA)
RNA: GGGAGUUCUACAGUCCGACGAUCUGCUACAAAGGAUGUAACUCAACACUCACAGGAUGAUUUCAUAGCCUGACCAGAUGACUACUUGAUUAGCUCCUUAUAAAAUUCAGAGCGCACAAAGCGGGGCAGAGAAUCCUUCUCCAUCAACAGAGGAUUGAGCAUCA
B15: chr7:141438946:141438947:+_ENSG00000106028_ENST00000265304|hu_mus|hu_hu_hu_mus_True|28_38 (ssRNA)
RNA: GGGAGUUCUACAGUCCGACGAUCGACGAAAUACCUGUAACACAGGUCUUCGAAACAUGGCUUCUGUUUUUCUUACAACCUAAUCUUUAGGCUUUUCCUGACGAUCUAACCCGAGCAAGAAAAAUGAUAAAUCAAGAAACUACACAACAGAGGAUUGAGCAUCA
B16: chr7:141438946:141438947:+_ENSG00000106028_ENST00000265304|hu_mus|hu_hu_hu_mus_True|88_108 (ssRNA)
RNA: GGGAGUUCUACAGUCCGACGAUCGACUACCUGUAAUUAACACAGGUGAAACAUGGCUGGCUUCUGUUUUUCUUACAACCUAAUCUUUAGGCUUUUCCUAAAGGAAAGAAAGAAAAGAGAAAAAUGAUAAAUCAAGAAACUACACAACAGAGGAUUGAGCAUCA
B17: chr9:64576133:64576134:-_ENSMUSG00000004771_ENSMUST00000172298|mus_hu|FALSE|FALSE (ssRNA)
RNA: GGGAGUUCUACAGUCCGACGAUCUGUCCCAUAUCUGUGCCUUUAUUGUUUUUCCAUCAACCUGGAUGCUUCUUGUUGCAAACUCUACUCCAAUGGUGCUCUUGCUUUCCAGAUUAAACUCAUUUCGAGUAAAUCGAGACAGGACAACAGAGGAUUGAGCAUCA
B18: 90661390_90661510_1077_3pUTR_ENSG00000112182_ENST00000537989|human|control|control (ssRNA)
RNA: GGGAGUUCUACAGUCCGACGAUCUUCCGGCACACAAACAGGCCAUCCUCACUGUUCAGGAGCUGGGUCUGCAGGAAGCUGAAGCAGGAGUCCUCCAGGUUGUGCAUGCGCAGGAACUCAGCACAGCGGAUGACCUCGCGGAUGCAACAGAGGAUUGAGCAUCA
B19: chr3:179287964:179287965:+_ENSG00000136518_ENST00000429709|hu_hu|hu_hu_hu_mus_True|1_68 (ssRNA)
RNA: GGGAGUUCUACAGUCCGACGAUCCUUGAGUGGUGAGAUGGCCUCCAUGUUCUCCCUGGGCACGCGGAGAGCAUUAGUGUCUAUGUAGUAGGUGGGCCCGCCCUGCUUGCCUUUGUCACCAUCAAUCUCCAUCAUUGUGCUUCCCAACAGAGGAUUGAGCAUCA
B20: chr17:65740002:65740003:+_ENSG00000130935_ENST00000581375|hu_hu|hu_hu_hu_mus_False|78_98 (ssRNA)
RNA: GGGAGUUCUACAGUCCGACGAUCAACAAAUCUUUCUCUGGAUGAAGAACAGGAAGACAUAAAAGAGAAAAAAUAUAUAUCCAUCAAGUUAGGUGUGGUGGCCACACCUUUACUCCCAGCACUUUGGGAGGUGGAUCUCUGAGUCAACAGAGGAUUGAGCAUCA
B21: 57673579_57674608_1111_CDS_ENSMUSG00000062190_ENSMUST00000050077|mouse|control|control (ssRNA)
RNA: GGGAGUUCUACAGUCCGACGAUCGGGGCAGCGCUCAGAUUUCCUUUCUUCCCUUGAUAGACUCUUUCCCGACUCAAUAAUAGCACUGACUACCUCUUUAAUAGCUGUCUCACCAACAGUGCCAGGGCCAAUCUCUGUGUUCAGCAACAGAGGAUUGAGCAUCA
B22: 27831831_27832786_1487_CDS_ENSG00000106052_ENST00000265393|human|control|control (ssRNA)
RNA: GGGAGUUCUACAGUCCGACGAUCUUCCUUAAAUUUUUCUUUAUAAUGGUCUGCAGCCAUCUGAAGACGGAGUUUCAGAUCUUCAACUUCUCUUCUUAGUUCGUGUUCCAGUGUAUCAGUCUUGUCCUGAUCUUUUUUCAUAGCCAACAGAGGAUUGAGCAUCA

This is one part of the list.

The experiment has as its target T1, UNK ZnF1-3 (human, UniProt Q9C0B0 31-174).
T1 sequence: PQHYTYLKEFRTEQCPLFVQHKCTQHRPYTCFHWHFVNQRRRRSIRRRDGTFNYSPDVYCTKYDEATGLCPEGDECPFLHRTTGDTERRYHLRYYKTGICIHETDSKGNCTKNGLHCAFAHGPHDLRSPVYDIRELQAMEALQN
The experiment can be described thus: nsRBNS (natural sequence RNA bind-n-seq); RBNS binding buffer (assumed for nsRBNS): 25 mM Tris pH 7.5, 150 mM KCl, 3 mM MgCl2, 0.01% Triton X-100, 500 ug/ml BSA, 20 U/ml SUPERase-In, 4 C; UNK is unkempt and MSI1 is Musashi-1; names of the RNAs are library labels; protein concentration not given here; high values mean tight binding.
B1: the binding signal is 2.31 enrichment R.
For B2 the value was 0.642 enrichment R; for B3, 0.96 enrichment R.
Consider B4, for which the binding signal was 0.999 enrichment R.
As for B5, the figure is 1.04 enrichment R; as for B6, 2.15 enrichment R.
As for B7, the figure is 0.878 enrichment R; as for B8, 0.63 enrichment R.
As for B9, the figure is 0.49 enrichment R; as for B10, 2.89 enrichment R; as for B11, 1.06 enrichment R.
Molecule B12 registered a binding signal of 0.85 enrichment R.
As for B13, the figure is 1.39 enrichment R.
The molecule B14 returned a binding signal of 1.16 enrichment R.
As for B15, the figure is 1.1 enrichment R; as for B16, 0.86 enrichment R.
As for B17, the figure is 0.65 enrichment R; as for B18, 1 enrichment R.
For B19 the value was 0.806 enrichment R.
B20: the binding signal came to 1.32 enrichment R.
B21: the binding signal was found to be 0.957 enrichment R.
For B22 the value was 0.467 enrichment R.

The values above are taken from paper PMC12136788.
